Hit rate of the full screen: of about 48,000 compounds, about 120 (0.25%) were called active. Another 4% or so got no clear call; they are omitted. The call rests on the fitted dose curve; in most records, active means well fitted activation curve with a large enough effect; inconclusive means small, poorly fitted or top-dose-only effect, or another doubt; inactive means no such curve, though single readings can be large or run the other way. The list shows a part of the results.
Test: Primary qHTS for Identification of Small Molecule Activators of Huntingtin-Antisense Promoter Activity; further: nearly all actives have a fitted effect of over 55% in size
Settings: HEK293 HTT-AS promoter firefly luciferase reporter, 24 h; series mostly up to 57.5 µM; activity change, positive = activation: at the top concentration
In short: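 HEK293 cells carrying firefly luciferase reporters were seeded at 2,500 per well in Opti-MEM and cultured for 24 h. They were then treated with compounds at up to 57.5 uM final for 24 h at 37 degrees C before Dual-Glo luminescence readout.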

Activity change, positive = activation, inactive:
O=C(CCn1ccc2cc(S(=O)(=O)N3CCCC3)ccc21)NCc1cccc(Br)c1 -3.21%
Cc1ccc(C)c(Nc2nn3c(=O)c4ccc(C(=O)NC5CCCCC5)cc4nc3s2)c1 -14.9%
COc1ccc(CCNC(=O)CCCCn2c(=O)c3ccccc3n(Cc3ccc(F)cc3Cl)c2=O)cc1OC -13.1%
O=[N+]([O-])c1cn2c(n1)OC[C@@H](OCc1ccc(OC(F)(F)F)cc1)C2 -13.2%
Cc1ccc(C(=O)NCC(c2cccnc2)N2CCc3ccccc32)cc1C (centres undefined) -33.1%
CC(=O)Nc1ccc(C2Nc3c(C)cc(C)cc3-c3cc(C)nn32)cc1 (centres undefined) -7.83%
COc1cc(OC)c(NS(=O)(=O)c2ccc3c(c2)NC(=O)CCS3)cc1Cl -49.2%
Cc1ccc(S(=O)(=O)NCCSc2nnnn2-c2ccc(Cl)c(C(=O)O)c2)cc1 -10.2%
CCOC(=O)c1ccc(NC(=O)C(Cc2ccccc2)NS(=O)(=O)c2ccc(Br)s2)cc1 (centres undefined) -0.286%
CCOC(=O)c1c(C)oc2nc(C)nc(NCc3ccccc3OCC)c12 -16.4%
Cc1cc(C)cc(Nc2sc(C(=O)c3ccccc3)c(N)c2S(=O)(=O)c2ccccc2)c1 -4.26%
CC(C)(C)CC(C)(C)c1ccc(OCCOCC[N+](C)(C)Cc2ccccc2)cc1 -41.5%
O=C(NCc1ccccc1Cl)C1CCCN(c2ncnc3onc(-c4ccc(F)cc4)c23)C1 (centres undefined) -19%
CCc1nn(CC(=O)NC(C)c2ccccc2)c(=O)c2cc3sccc3n12 (centres undefined) -4.04%
CCOC(=O)C1=C(CS(=O)(=O)c2ccc(F)cc2)NC(=O)NC1c1ccc(OCC)c(OC)c1 (centres undefined) -9.85%
CC(C)CCNC(=O)[C@@H](c1ccccc1)N1Cc2ccccc2C1=O -28.5%
CCOc1ccc(NC(=O)Cn2nnc(C(=O)Nc3ccc(OCC)cc3)c2N)cc1 25.9%
Cc1ccc(C)c(N2CCN(c3cc(C)nc4c(-c5ccc(Cl)cc5)c(C)nn34)CC2)c1 -7.98%
Cc1cc(C)cc(OCC(=O)NCC2(N(C)C)CCCCC2)c1 -5.13%
CCCc1cc(=O)n2[nH]c(NCc3ccccc3OC)nc2n1 5.69%
Cc1ccc(S(=O)(=O)N2CCC(c3ccncc3)CC2)c(C)c1 -84.1%
O=C(COc1ccccc1-c1nc(-c2ccccc2)no1)Nc1ccccc1[N+](=O)[O-] -9.93%
O=C(CCS(=O)(=O)c1cc(Br)cc2c1N(C(=O)C1CC1)CC2)Nc1ccc(C(F)(F)F)cc1 -9.52%
COc1cccc(CNC(=O)CN2C(=O)COc3ccc(S(=O)(=O)Nc4ccccc4)cc32)c1 -31.3%
CN(Cc1ccccc1)C(=O)C1CCN(S(=O)(=O)c2ccc3nc4c(c(C(=O)O)c3c2)CCCC4)CC1 -4.51%
COc1ccc(CNC(=O)C2CCN(C(=O)N3CC(C)Oc4ccc(C)cc43)CC2)cc1 (centres undefined) -33.1%
Cn1c(=O)c2sccc2n2c(CCC(=O)NCc3ccccc3Cl)nnc12 -13.1%
O=C(Nc1ccc(Cl)cc1)c1cc(S(=O)(=O)N2CCc3ccccc32)ccc1F -33.2%
COc1ccc(-c2nc(Cn3c(SCc4ccccc4F)nc4ccncc43)c(C)o2)cc1OC -16.3%
CCOc1ccc(C(=O)Nc2cc(-c3cn4cccnc4n3)ccc2C)cc1OCC -14.8%
Cc1cc(C)cc(NC(=O)C2CCC(CNS(=O)(=O)c3ccc4c(c3)C(C)(C)C(=O)N4C)CC2)c1 (centres undefined) -48.8%
CCn1cc(C(=O)NCCc2ccc(C)cc2)c(=O)c2cc(S(=O)(=O)N3CCCCC3)ccc21 26.4% [at 11.5 µM, percent change from vehicle, -100% = no light]
COc1ccc(CCNC(=O)c2c(C)oc3ncn(CC(C)C)c(=O)c23)cc1OC -13.3%
Cc1cccc(NC(=O)c2oc3ccccc3c2NC(=O)c2cc(=O)c3cc(Cl)ccc3o2)c1 -1.13%
CCOC(=O)c1ccc(OC(=O)CCCCCN=C(N)N)cc1
COc1ccc(C)cc1NC(=O)CSc1ccc(-c2ccccn2)nn1 -16.9%
Cn1c(SCC(=O)c2ccc(F)cc2)nnc1-c1ccccc1Br -15.2%
COc1ccccc1C(=O)Nc1c(C(=O)N(C)c2ccccc2)sc2nc(C)cc(C)c12 -11.1%
Cc1nn2c(=O)cc(COC(=O)c3cccc(NC(=O)c4ccc(C(C)(C)C)cc4)c3)nc2s1 -3.59%
O=C(COC(=O)c1cccc(NC(=O)c2ccc(Br)cc2)c1)c1ccc(Br)cc1 -9.68%
COc1cccc(C(=O)Nc2ccc3nc(N4CCC(C)CC4)cc(C)c3c2)c1 -37.3%
CCOC(=O)c1[nH]c2c(c1Cc1ccccc1OC)C(=O)CC(c1ccc(OCC)cc1)C2 (centres undefined) -16.8%
COc1ccc(C(=O)CCC(=O)Nc2ccc(OC)c(Cl)c2)cc1 -11.8%
COc1ccc(C2=CC(c3cccc(C)c3)n3nnnc3N2)cc1 (centres undefined) -21.9%
CCOC(=O)c1c(C)oc2nc(C)nc(NCCc3ccc(SC)cc3)c12 -7.68%
Cc1ccc(S(=O)(=O)c2nc(S(C)(=O)=O)sc2NCc2ccccc2)cc1 -29.5%
COc1cc(NC(=O)Cn2nc(-c3ccc(C)c(C)c3)ccc2=O)cc(OC)c1 -25.2%
CCN(CC)S(=O)(=O)c1ccc2c(c1)N(CC(=O)Nc1ccc(C)cc1C)C(=O)C1CCCN21 (centres undefined) -19.3%
CC(C)NC(=O)c1ccccc1NC(=O)c1nsc2ccccc12 10.4%
O=C(Cn1c(=O)n(-c2ccc(Cl)cc2)c(=O)c2oc3ccccc3c21)Nc1ccccc1 -22.1%
CC1CCN(c2ncnc3c2nnn3C)CC1 5.77%
CCN(CC)S(=O)(=O)c1nnc(NC(=O)c2ccc(C(C)C)cc2)s1 -24.6%
COc1cccc(C(=O)Nc2ccccc2-c2nnc(-c3cc(OC)ccc3Br)o2)c1 -12.5%
COc1ccc(C2=C(C)C(=O)N(Cc3ccc(C(=O)Nc4cc(C)ccc4C)cc3)S2(=O)=O)cc1 -35.4%
O=C(Cc1ccc(Cl)cc1)NCC(c1cccs1)S(=O)(=O)c1ccc(F)cc1 (centres undefined) -31.9%
Cn1cnc(S(=O)(=O)N2CCC(C(=O)NCc3ccc(F)cc3)CC2)c1 -4.6%
CCCSS/C(CCO)=C(\C)N(C=O)Cc1cnc(C)nc1N 4.58%
Cc1cccc(N2CCN(CCCNC(=O)c3nnc(Cc4c(F)cccc4Cl)o3)CC2C)c1 (centres undefined) -33.3%
O=S(=O)(O)CCSSCCS(=O)(=O)O -25.6%
O=C(COCc1cc(-c2cccs2)on1)Nc1ccc(OC(F)(F)F)cc1 -1.96%
Cc1cc2c(cc1C)NC(CC(=O)Nc1ccccc1SC(F)(F)F)C(=O)N2 (centres undefined) -4.02%
COc1cc2c(Nc3ccc(Cl)c(Cl)c3F)ncnc2cc1OCC1C[C@@H]2CN(C)C[C@H]2C1 -50.2%
CCCCOc1ccc(NC(=O)Cn2nnnc2-c2ccccc2F)cc1 -5.28%
Cc1ccc(S(=O)(=O)c2nc(-c3ccco3)oc2SCC(C)C)cc1 -5.19%
COc1cc(OC)c(NC(=O)Cn2cnc3sc(C)c(S(=O)(=O)N4CCN(C)CC4)c3c2=O)cc1Cl -12.1%
COc1ccc2ncc3c(-c4ccc(C)c(C)c4)nn(CC(=O)NC4CCCCC4)c3c2c1 -4.46%
CCc1cc2c(cc3c(=O)n(CC(=O)N4CCCCC4)ncn32)s1 3.85%
CCOc1ccc2nc(N3CCCC(C(=O)Nc4cccc(Cl)c4C)C3)sc2c1 (centres undefined) 33.2%
O=C(Cc1ccc(NC(=O)N2CCCCc3ccccc32)cc1)NCc1ccccc1 -29.2%
CCCCN(CCCC)CCNC(=O)c1cc(-c2cccnc2)nc2ccc(S(=O)(=O)N3CCC(C)CC3)cc12 -3.89%
CCCCn1cc(S(=O)(=O)c2ccc(F)cc2)c(=O)c2ccccc21 5.3%
COc1ccccc1CNC(=O)c1ccc(-c2nc(CS(=O)c3ccccc3)c(C)o2)cc1 (centres undefined) 10.8%
N#CC(=C(O)c1ccc(Cl)cc1Cl)c1nc2cc(Cl)ccc2c(=O)[nH]1 -16.2%
Cc1ccc(Cl)cc1NC(=O)CN1C(=O)COc2ccc(S(=O)(=O)N3CCOCC3)cc21 -20.6%
Cc1cnc2c(c1SCC(=O)Nc1ccc(F)cc1F)c(=O)n(C)c(=O)n2C -5.16%
Cc1cc(F)ccc1NC(=O)C1CCCN(S(=O)(=O)c2ccc3c(c2)CCCC(=O)N3)C1 (centres undefined) -26%
COc1ccc(N(Cc2cccs2)C(=O)COc2ccc(C(C)C)cc2)cc1 -45%
COc1ccc(S(=O)(=O)c2c(Nc3ccc(C)cc3)sc(C(=O)c3ccc4c(c3)OCO4)c2N)cc1 -19%
CN(C)c1ccc(CN(CC2CCCO2)C(=O)c2ccc(Br)cc2)cc1 (centres undefined) -16.2%
Cc1ccc2[nH]c3c(=O)n(CC(=O)N4CCN(c5cccc(C(F)(F)F)c5)CC4)ncc3c2c1 -6.64%
CCOc1ccc(N2C(=O)N(Cc3c(F)cccc3Cl)c3ccccc3S2(=O)=O)cc1 -19.3%
COc1cccc(CNC(=O)CN2C(=O)CSc3c2c(C)nn3-c2ccccc2)c1 -9.87%
Cc1ccc(-n2c(=O)c3ccc(C(=O)NCc4ccccc4Cl)cc3n(CC(=O)Nc3cccc(F)c3)c2=O)cc1 -22.4%
Cc1ccc(CN2CCNCC2)cc1NC(=O)CNc1ccc(F)c(F)c1 -5.94%
Cc1ccc2[nH]c(CSc3nnc(COc4ccccc4C)n3C)cc(=O)c2c1 -27.6%
CCOC(=O)N1CCC2(CC1)OC(=O)C(C)=C2C(=O)NCc1cccc(OC)c1 -10%
Cn1c(=O)n(-c2cccc(Cl)c2)c(=O)c2sc3ccccc3c21 -6.21%
Cc1cc(NC(=O)Cn2nc(C)n3cccc3c2=O)ccc1Br -15.4%
CCCS(=O)(=O)N1CC(=O)N(c2ccccc2C)C(C)(C(=O)NC2CCCC2)C1 (centres undefined) -8.83%
CNC(=O)c1sc2ncccc2c1-n1cccc1 -2.37%
Cc1cccc(-n2ncc(C(=O)NCc3ccccn3)c2C2CCN(C(=O)OC(C)(C)C)CC2)c1 -7.22%
CCN1CCN(Cc2c(O)ccc3c(C)c(-c4ccccc4)c(=O)oc23)CC1 -12.9%
COc1ccc(CNc2cc(-c3ccc(OC)cc3)nc3nncn23)cc1 -26.1%
O=C(CSc1nc2c(c(=O)[nH]1)CCCC2)Nc1ccc(Br)cc1 -20.7%

Source: PubChem BioAssay AID1508624 (National Center for Advancing Translational Sciences (NCATS), 2021)
